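Values below derive from 48-hour exposures of cells grown in 96-well plates, with endpoints linearly interpolated between the two concentrations bracketing the appropriate inhibition level. Abbreviation: GI50, concentration required for 50% inhibition of growth. TGI marks complete inhibition of growth.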

The values below come from PubChem BioAssay (NCI).

The assay relates to NCI-H322M lung. Description: NCI anticancer screen, dose series, 48 h.
The molecule `CCOC(=O)C(Cc1ccc(OC(=O)c2ccc(OC)cc2)cc1)NC(=O)C(F)(F)F` (stereo not given) gave a TGI above 100 µM.
In turn, `O=c1ncc(F)cn1C1OC(CO)C(O)C1O` (stereo not given) showed a TGI above 100 µM.
In the case of `O=[N+]([O-])C(=C(N1CCOCC1)N1CCOCC1)/C(Cl)=C(\Cl)Br`, the TGI was above 100 µM.
Turning to `O=C(c1ccccc1)C(CN1CCCCC1)c1ccccc1` (stereo not given), the GI50 was 11.4 µM and the TGI worked out at 25.1 µM.
For `Cc1nnc(-c2cccc(-c3ccc(C(=O)NCC4CC4)cc3)c2)o1`, in that order: above 25 µM and above 25 µM.
In turn, `O=c1[nH]nc(-c2ccccc2)n1/N=C/c1cccs1` gave a TGI above 100 µM.
`O=C(O)CCSCc1ccccc1` yielded a TGI above 100 µM.
`C[C@]12CC/C(=N\O)C=C1CC[C@@H]1C2CC[C@@]2(C)C1CC[C@@H]2OC1CCCCO1` (stereo not given in full) registered a TGI above 100 µM.
`COc1cc(/C=N/n2c(-c3ccccc3)nn(C(C)=O)c2=O)cc(OC)c1OC` displayed a TGI above 62 µM.
On to `O=C1C=CC(=Nc2cc(Br)c(O)c(Br)c2)C=C1`, for which the GI50 is 60.7 µM and the TGI was above 100 µM.
The molecule `COC(=O)C1(C#N)C(C)(C)N=C(c2ccccc2)C12CCCCC2` (stereo not given) registered a TGI above 100 µM.
`Cn1c(=O)c2c(nc3n2CCCC(=O)N3CC(O)CCl)n(C)c1=O` (stereo not given) returned a TGI above 100 µM.
For the molecule `CC(C)=CCC[C@](C)(O)[C@H]1CC[C@]2(C)[C@@H]1CC[C@@H]1[C@@]3(C)CC/C(=N/O)C(C)(C)[C@@H]3CC[C@]12C`, the GI50 was 22.5 µM and the TGI is above 100 µM.
In turn, `CC(C)NC(=O)OCc1c(CO)c2c(n1C)-c1ccccc1CC2` yielded a TGI above 100 µM.
With `C=C(CCC/C(C)=C/C=C/[C@@H](C)CCCc1ccoc1)C[C@@H]1OC(=O)[C@H](C)[C@@H]1O`, the TGI turned out to be 14.2 µM.
In turn, `O=C(c1ccccc1)C1OC12C(=O)Nc1c(Cl)cc(Cl)cc12` (stereo not given) had a TGI above 100 µM.
